# The source holds more than one record for some entries. The other results are left out here. The source may hold further records. The values listed for one entry repeat one measurement across runs, samples, wells, individuals or studies.
# Test system: Swiss mice, Sarcoma 180 sc, mean tumor weight T/C
# Assay: NCI In Vivo Anticancer Drug Screen. Data for tumor model Sarcoma 180 (subcutaneous) in Swiss mice
# Settings: endpoint: mean tumor weight, higher = larger tumour
# Experimental: The antitumor activity of compounds was measured in mice bearing transplantable tumors. Survival or tumor size were measured and the results are expressed as the measurement made in the treated group (T) divided by the measurement made in the vehicle treated control group (C). The tumor model used in this assay is Sarcoma 180 (subcutaneous) in Swiss mice
# [1] = dose: 1.0 mg/kg/injection, schedule: Q01DX007 (ip), vehicle: carboxymethylcellulose (CMC)
smiles,measurement,setting,value
CC1CN1P(=O)(N1CCCC1)N1CC1C (stereo not drawn),T/C,"dose: 7.0 mg/kg/injection, schedule: Q#A X014 (ip), vehicle: saline",51 % of control and 89 % of control
same,T/C,"dose: 10.5 mg/kg/injection, schedule: Q#A X014 (ip), vehicle: saline",37 % of control and 69 % of control
CS(=O)(=O)OCCCCCOS(C)(=O)=O,T/C,"dose: 25.0 mg/kg/injection, schedule: Q#A X014 (ip), vehicle: methylcellulose (MC)",38 % of control and 83 % of control
COC1C(OC(=O)/C=C/C=C/C=C/C=C/C(=O)O)CCC2(CO2)C1C1(C)OC1CC=C(C)C (stereo not drawn),T/C,"dose: 50.0 mg/kg/injection, schedule: Q01DX007 (ip), vehicle: carboxymethylcellulose (CMC)","30 % of control, 54 % of control, 65 % of control"
same,T/C,"dose: 100.0 mg/kg/injection, schedule: Q01DX007 (ip), vehicle: carboxymethylcellulose (CMC)",25 % of control and 52 % of control
CC1CN1P(=O)(Oc1ccccc1)N1CC1C (stereo not drawn),T/C,"dose: 41.5 mg/kg/injection, schedule: Q#A X014 (ip), vehicle: saline","29 % of control, 48 % of control, 60 % of control"
CC1=C(CO)C(=O)O[C@@H]([C@@H](C)[C@H]2CC[C@H]3[C@@H]4C[C@H]5O[C@]56[C@@H](O)C=CC(=O)[C@]6(C)[C@H]4CC[C@]23C)C1,T/C,"dose: 20.0 mg/kg/injection, schedule: Q01DX007 (ip), vehicle: carboxymethylcellulose (CMC)",38 % of control and 71 % of control
same,T/C,"dose: 20.0 mg/kg/injection, schedule: Q01DX007 (ip), vehicle: saline","46 % of control, 47 % of control, 104 % of control"
same,T/C,"dose: 30.0 mg/kg/injection, schedule: Q01DX007 (ip), vehicle: saline",65 % of control and 93 % of control
COCCOC1=C(N2CC2)C(=O)C(OCCOC)=C(N2CC2)C1=O,T/C,"dose: 4.0 mg/kg/injection, schedule: Q01DX001 (ip), vehicle: saline",43 % of control and 73 % of control
same,T/C,"dose: 8.0 mg/kg/injection, schedule: Q01DX001 (ip), vehicle: saline",7 % of control and 71 % of control
CC(=O)NNC(=O)c1ccccn1,T/C,"dose: 150.0 mg/kg/injection, schedule: Q01DX007 (ip), vehicle: water",29 % of control and 74 % of control
CCCC(=O)OCC1OC(n2cnc3c(=S)nc(N)[nH]c32)C(OC(=O)CCC)C1OC(=O)CCC (stereo not drawn),T/C,"dose: 21.0 mg/kg/injection, schedule: Q01DX007 (ip), vehicle: carboxymethylcellulose (CMC)","28 % of control, 34 % of control, 54 % of control"
same,T/C,"dose: 31.0 mg/kg/injection, schedule: Q01DX007 (ip), vehicle: carboxymethylcellulose (CMC)","18 % of control, 30 % of control, 73 % of control"
CC(=O)Nc1cc2c(cc1[N+](=O)[O-])-c1ccccc1C2O (stereo not drawn),T/C,"dose: 222.0 mg/kg/injection, schedule: Q01DX007 (ip), vehicle: other",50 % of control and 82 % of control
CC(=O)Nc1cc2c(cc1Br)-c1ccccc1C2O (stereo not drawn),T/C,"dose: 85.0 mg/kg/injection, schedule: Q01DX007 (ip), vehicle: saline",61 % of control and 104 % of control
same,T/C,"dose: 110.0 mg/kg/injection, schedule: Q01DX007 (ip), vehicle: other",48 % of control and 101 % of control
same,T/C,"dose: 166.0 mg/kg/injection, schedule: Q01DX007 (ip), vehicle: other",21 % of control and 50 % of control
CNC(C)=O,T/C,"dose: 1000.0 mg/kg/injection, schedule: Q01DX007 (ip), vehicle: carboxymethylcellulose (CMC)",36 % of control and 73 % of control
COC(=O)[C@H]1[C@H]2C[C@@H]3c4[nH]c5cc(OC)ccc5c4CCN3C[C@H]2C[C@@H](OC(=O)c2cc(OC)c(OC)c(OC)c2)[C@@H]1OC,T/C,[1],32 % of control and 71 % of control
same,T/C,"dose: 1.5 mg/kg/injection, schedule: Q01DX007 (ip), vehicle: carboxymethylcellulose (CMC)",47 % of control and 100 % of control
CCC(=O)OCC1OC(n2cnc3c(=S)nc(N)[nH]c32)C(OC(=O)CC)C1OC(=O)CC (stereo not drawn),T/C,"dose: 3.0 mg/kg/injection, schedule: Q01DX007 (ip), vehicle: carboxymethylcellulose (CMC)",51 % of control and 92 % of control
same,T/C,"dose: 10.0 mg/kg/injection, schedule: Q01DX007 (ip), vehicle: carboxymethylcellulose (CMC)","11 % of control, 50 % of control, 56 % of control"
CO[C@@]12[C@H](COC(N)=O)C3=C(C(=O)C(C)=C(N)C3=O)N1C[C@@H]1N[C@@H]12,T/C,"dose: 1.0 mg/kg/injection, schedule: Q#A X014 (ip), vehicle: carboxymethylcellulose (CMC)",37 % of control and 65 % of control
C[C@H]1C[C@@H]2[C@H](C(=O)C[C@@]3(C)[C@H]2CC[C@]3(O)C(=O)CO)[C@@]2(C)C=CC(=O)C=C12,T/C,"dose: 145.0 mg/kg/injection, schedule: Q01DX007 (sc), vehicle: steriod suspending solution",37 % of control and 93 % of control
same,T/C,"dose: 495.0 mg/kg/injection, schedule: Q01DX007 (sc), vehicle: steriod suspending solution",30 % of control and 63 % of control
OCC(F)(F)C(F)(F)C(F)(F)F,T/C,"dose: 125.0 mg/kg/injection, schedule: Q01DX007 (ip), vehicle: saline",79 % of control and 109 % of control
same,T/C,"dose: 500.0 mg/kg/injection, schedule: Q01DX007 (ip), vehicle: saline",59 % of control and 109 % of control
CCCCOP(=S)(N1CC1)N1CC1,T/C,"dose: 3.3 mg/kg/injection, schedule: Q#A X014 (ip), vehicle: saline",20 % of control and 53 % of control
same,T/C,"dose: 5.0 mg/kg/injection, schedule: Q#A X014 (ip), vehicle: saline",22 % of control and 53 % of control
CN(C)[C@@H]1C(=O)C(C(=O)NCc2nc3[nH]cnc(=S)c3[nH]2)=C(O)[C@@]2(O)C(=O)C3=C(O)c4c(O)cccc4[C@@](C)(O)[C@H]3C[C@@H]12,T/C,"dose: 112.0 mg/kg/injection, schedule: Q01DX007 (ip), vehicle: carboxymethylcellulose (CMC)",40 % of control and 84 % of control
Clc1ccccc1/C=C/C=C1c2ccccc2-c2ccccc21,T/C,"dose: 750.0 mg/kg/injection, schedule: Q01DX007 (ip), vehicle: saline",47 % of control and 75 % of control
CCNc1nncs1,T/C,"dose: 65.5 mg/kg/injection, schedule: Q01DX007 (ip), vehicle: carboxymethylcellulose (CMC)",86 % of control and 112 % of control
Nc1ncnc2c1ncn2C1OC(COCc2ccccc2)C(OCc2ccccc2)C1OCc1ccccc1 (stereo not drawn),T/C,"dose: 80.0 mg/kg/injection, schedule: Q01DX007 (ip), vehicle: saline",68 % of control and 95 % of control
Nc1nc(=S)c2ncn(C3OC(CO)C(O)C3O)c2[nH]1 (stereo not drawn),T/C,[1],39 % of control and 94 % of control
same,T/C,"dose: 2.0 mg/kg/injection, schedule: Q01DX007 (ip), vehicle: carboxymethylcellulose (CMC)","27 % of control, 77 % of control, 102 % of control"
same,T/C,"dose: 4.0 mg/kg/injection, schedule: Q01DX007 (ip), vehicle: carboxymethylcellulose (CMC)","28 % of control, 62 % of control, 91 % of control"
same,T/C,"dose: 4.0 mg/kg/injection, schedule: Q#A X014 (ip), vehicle: carboxymethylcellulose (CMC)",22 % of control and 77 % of control
same,T/C,"dose: 8.0 mg/kg/injection, schedule: Q01DX007 (ip), vehicle: carboxymethylcellulose (CMC)","12 % of control, 19 % of control, 108 % of control"
CC1OC2CC(=O)OC2C2=C1C(=O)c1c(O)c3c(c(O)c1C2=O)C1CC(O)C3(O)C(C)O1 (stereo not drawn),T/C,"dose: 3.2 mg/kg/injection, schedule: Q01DX007 (ip), vehicle: saline",64 % of control and 95 % of control
C[C@]12CC[C@H](OC3OC(CO)C(O)C(O)C3O)C[C@H]1CC[C@@H]1[C@@H]2CC[C@]2(C)[C@@H](C3=CCOC3=O)CC[C@]12O (stereo partly drawn),T/C,"dose: 0.25 mg/kg/injection, schedule: Q01DX007 (ip), vehicle: carboxymethylcellulose (CMC)",40 % of control and 86 % of control
same,T/C,"dose: 0.4 mg/kg/injection, schedule: Q01DX007 (ip), vehicle: saline",45 % of control and 77 % of control
same,T/C,"dose: 0.5 mg/kg/injection, schedule: Q01DX007 (ip), vehicle: carboxymethylcellulose (CMC)",36 % of control and 68 % of control
same,T/C,"dose: 0.75 mg/kg/injection, schedule: Q03DX003 (ip), vehicle: carboxymethylcellulose (CMC)","47 % of control, 95 % of control, 100 % of control"
same,T/C,"dose: 1.5 mg/kg/injection, schedule: Q03DX003 (ip), vehicle: carboxymethylcellulose (CMC)","36 % of control, 62 % of control, 67 % of control"
same,T/C,"dose: 3.0 mg/kg/injection, schedule: Q03DX003 (ip), vehicle: carboxymethylcellulose (CMC)",62 % of control and 88 % of control
same,T/C,"dose: 30.0 micrograms/kg/injection, schedule: Q01DX007 (ip), vehicle: saline",72 % of control and 112 % of control
same,T/C,"dose: 60.0 micrograms/kg/injection, schedule: Q01DX007 (ip), vehicle: saline",71 % of control and 100 % of control
same,T/C,"dose: 480.0 micrograms/kg/injection, schedule: Q01DX007 (ip), vehicle: saline","20 % of control, 47 % of control, 84 % of control"
same,T/C,"dose: 1000.0 micrograms/kg/injection, schedule: Q01DX007 (ip), vehicle: carboxymethylcellulose (CMC)",38 % of control and 68 % of control
CC1(c2ccccc2)O[C@@H]2C[C@H]3[C@@H]4CCC5=CC(=O)C=C[C@]5(C)[C@@]4(F)[C@@H](O)C[C@]3(C)[C@]2(C(=O)CO)O1 (stereo partly drawn),T/C,"dose: 3.9 mg/kg/injection, schedule: Q#A X014 (sc), vehicle: steriod suspending solution","23 % of control, 46 % of control, 56 % of control"
same,T/C,"dose: 5.85 mg/kg/injection, schedule: Q#A X014 (sc), vehicle: steriod suspending solution",18 % of control and 55 % of control
same,T/C,"dose: 13.2 mg/kg/injection, schedule: Q#A X014 (sc), vehicle: steriod suspending solution","10 % of control, 17 % of control, 38 % of control"

# Reference: PubChem BioAssay AID342 (DTP/NCI, 2004)
